From the supplement of paper PMC11417369 come the findings set out here.

± gives the standard deviation of the averaged measurements. The list shows a part of the results.

The assay concerns PfAP2-EXP AP2 domain (GST-tagged). Briefly: gcPBM binding intensity (ln(normalized median fluorescence intensity)); higher = stronger DNA binding. An outline of the steps:
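An Agilent 4 × 180k array carrying primer-extended double-stranded 36-bp intergenic genomic probes and negative controls received GST-tagged P. falciparum DNA-binding domains expressed in E. coli, about 25 μg on average, for 1 h. The binding buffer contained 1× PBS, 1% milk, 0.2 mg/ml BSA, 0.5% salmon testes DNA and 0.03% Triton X-100. Binding intensity is the top Masliner-normalised natural-log median intensity across replicate spots of either probe orientation, read after Alexa488 anti-GST antibody staining and a 488 nm scan.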
As to “TTGTATATTTTATGTACACACAATAAGTTAATATAA [CACACA_site4655]”, the “gcPBM binding intensity (ln)” value turned out to be 8.53 ± 0.26.
Turning to “TTTTTCTATAAAAAAAAAAAAAAAAAATATATATAT [TGCATGCA_negctrl_site535]”, the “gcPBM binding intensity (ln)” value was determined as 9.47 ± 0.14.
The same measure for “AAAATAATGTATATATGTACATATAAATATATATAT [XGTACX_site8081]”: 9.32; for “TTTTACAAATATAATGGGTGAGCTATCAAAATAAAT [GTGCAC_negctrl_site91]”: 8.73 ± 0.32; for “TGTATACTATTAAATTGTACACATAAGAAATATTAT [XGTACX_site5839]”: 8.61 ± 0.34.
On to “ATGTTTTTAAAAAATTGTACATAATATTTTTTATAA [XGTACX_site7692]”, for which the “gcPBM binding intensity (ln)” value was 8.39 ± 0.35.
Turning to “TATATATATATATATATAATACGAATTTGTAGTACA [TGCATGCA_negctrl_site224]”, the “gcPBM binding intensity (ln)” value was 10.2 ± 0.16.
The same measure for “TTATTTTAATAACCTACACACATTTTGTATATTTTA [CACACA_site4000]”: 8.4 ± 0.42; for “TTATAAATATTCTTGGGTACTTAAGATGATATGTAA [XGTACX_site5496]”: 8.34 ± 0.39; for “AAATGATGGAAAAAATAAATTTTTGTACAAAAATTA [CACACA_negctrl_site814]”: 8.62 ± 0.4.
For “ATATATATATTATTTCGTACATAATTATTTGCCTTA [XGTACX_site350]”, the “gcPBM binding intensity (ln)” value is 9.54 ± 0.15.
On to TAATAAAATATGTACGTGCACATAATTATACTAAAA, for which the “gcPBM binding intensity (ln)” value was found to be 8.745 ± 0.078.
The same measure for “TGATACTTTTTTTGTAGTACTCCTAAAATTATAAAA [XGTACX_site4340]”: 8.59 ± 0.38.
As to “TTTTTTTTATTTTAATGTACATTTTTTATTTGTTAT [XGTACX_site7189]”, the “gcPBM binding intensity (ln)” value stood at 8.69 ± 0.59.
Regarding “AAAAAAAAAAAAGAAACACACATATTTATATTTATA [CACACA_site6213]”, the “gcPBM binding intensity (ln)” value came to 8.25 ± 0.37.
As for “AAAAAAAAAAAAAATTGTACAAAAAAAATAAATAAA [XGTACX_site6816]”, the figure is 8.44 ± 0.63.
“ATTATGCTACAAGGAGAACACACAATTGCCACTTTT [CACACA_site8673]”: the “gcPBM binding intensity (ln)” value came out at 8.63 ± 0.54.
For “ACATATATATATATATATATATATATATAATATTTA [CACACA_negctrl_site633]”, the “gcPBM binding intensity (ln)” value was determined as 8.73 ± 0.028.
“TTTTTTTTGTGGTGTCGTACATATGTTTGTTTTAAG [XGTACX_site1759]”: the “gcPBM binding intensity (ln)” value was 8.91 ± 0.57.
For the sequence CCACGAGAATATATAGTGCATAATAATTTTTTTTTG, the “gcPBM binding intensity (ln)” value turned out to be 8.56 ± 0.33.
Take “GGTGATAATAAGCATACACACACACCCAAAAAAAAA [CACACA_site8137]”: the “gcPBM binding intensity (ln)” value stood at 8.61 ± 0.42.
In the case of “AAAAAAAAAAAGAAAGCACACAATACATATGTATAA [CACACA_site1137]”, the “gcPBM binding intensity (ln)” value is 8.45 ± 0.47.
For the sequence “TAAATTTTTAAATACACACATACACCCATACAGACA [CACACA_site548]”, the “gcPBM binding intensity (ln)” value was found to be 9.04 ± 0.45.
As for “ATATATATCAGACACACACACATGTTTTAAAACTAT [CACACA_site77]”, the figure is 9.04 ± 0.56; as for “CATATAAAAATATATGCACACAAATAAAAAATTATA [CACACA_site9210]”, 8.39 ± 0.28.
The same measure for “ATATTTAAATAATATTCACACACAAAATTATATTTT [CACACA_site7955]”: 8.42 ± 0.4; for “ATTTCTCAATCGTAATGTACAAAAAAAAGGGAAAAG [XGTACX_site2781]”: 8.75 ± 0.55; for “ACAAACAAAGAAAGAACACACATACACAATATACCT [CACACA_site5566]”: 8.75 ± 0.59.
The same measure for “ATAAATATAATAATCATACACACCAAAGAGAATATT [CACACA_site1888]”: 8.66 ± 0.52; for “AAAGTTATTATGCAATAATTATGATAATTAATATAT [TGCATGCA_negctrl_site316]”: 8.64 ± 0.56; for “ATGACTTACATATATAGTACTTTGTTTTGGAGTTGC [XGTACX_site94]”: 8.64 ± 0.42.
In the case of “TATGAGGAAACGTGGTGTACTTTTTTTTAATAAAAA [XGTACX_site1351]”, the “gcPBM binding intensity (ln)” value was 8.37 ± 0.26.
On to “AAAAAAAAAAAGTTTACACACATTAATTTTACATAT [CACACA_site834]”, for which the “gcPBM binding intensity (ln)” value was found to be 8.12 ± 0.43.
Take “AAAAAAATACCATTCACACATATTCTTTTATTATTT [CACACA_site5113]”: the “gcPBM binding intensity (ln)” value was 8.48 ± 0.28.
“GTAGCAATAAACATATGTACATATATATATTTTTTC [XGTACX_site5814]”: the “gcPBM binding intensity (ln)” value turned out to be 8.66 ± 0.4.
“TAATAATACCCTTGCTGTACCAAATAAAGTTGAATA [XGTACX_site6922]”: the “gcPBM binding intensity (ln)” value turned out to be 8.36 ± 0.35.
Take “AAATCAACGATCTATACATGCATATAATATATACAT [TGCATGCA_site25]”: the “gcPBM binding intensity (ln)” value worked out at 8.67 ± 0.21.
As for “ATTAAAAAGACAAAAAAAAAATTTTTTTTTTTTTTT [CACACA_negctrl_site1027]”, the “gcPBM binding intensity (ln)” value turned out to be 8.32 ± 0.26.
Regarding “TTTCATAACAAAAAAGTGCAAAATAGCACGAACATT [GTGCAC_site9703]”, the “gcPBM binding intensity (ln)” value amounted to 9.07 ± 0.29.
As for “AAAAATTATATACATCATAGAATTAACATTTTAAAT [GTGCAC_negctrl_site369]”, the figure is 8.11 ± 0.33; as for “AGAAAAAGGAGAAAAAGTACAAAACGGAGTAGTATT [XGTACX_site3858]”, 9.06 ± 0.54; as for “ATGGCCACTGTGAAATGTACAAAAAAAAAATACAAT [XGTACX_site2874]”, 8.86 ± 0.6.
As for “TATGTATATATATATATATATATATATATATATATA [TGCATGCA_negctrl_site491]”, the figure is 10.1 ± 0.66; as for “AGTAGTCTGGAGAAAAGTACATAGTATCTGGTAACC [XGTACX_site2024]”, 8.62 ± 0.45.
